Measurements: paper PMC10439310 (Nature microbiology, 2022)

Experiments:
BsIMPDH-K202A [1] = settings: 10 μM Ap4A
BsIMPDH-R141A/R144A [2] = settings: 10 μM Ap4A
BsIMPDH-K202A [3] = settings: presence of IMP and NAD+
BsIMPDH-R141A/R144A [4] = settings: presence of IMP and NAD+

SMILES: Nc1ncnc2c1ncn2[C@@H]1O[C@H](COP(=O)(O)OP(=O)(O)OP(=O)(O)OP(=O)(O)OC[C@H]2O[C@@H](n3cnc4c(N)ncnc43)[C@H](O)[C@@H]2O)[C@@H](O)[C@H]1O [Ap4A, diadenosine 5’,5’’’-P1,P4-tetraphosphate]
- Ap4A-dependent change of enzymatic activity (in words) (BsIMPDH-K202A [1]): modest Ap4A-dependent reduction in activity
- Ap4A-dependent regulation of enzymatic activity (in words) (BsIMPDH-R141A/R144A [2]): insensitive to Ap4A-dependent regulation
- Ap4A-dependent octamerization (in words) (BsIMPDH-K202A [3]): still able to octamerize in dependence on Ap4A albeit higher concentrations were required
- Ap4A-dependent tetramer-to-octamer equilibrium (in words) (BsIMPDH-R141A/R144A [4]): insensitive to Ap4A-dependent regulation
